Assay results taken from PubChem BioAssay AID1963576 (National Center for Advancing Translational Sciences (NCATS), 2024).
Among all 46,000 compounds or so, about 60 (0.1%) were called active. Not shown: some 3% with an inconclusive outcome. The call rests on the fitted dose curve; in most records, active means well fitted inhibition curve with a large enough effect; inconclusive means small, poorly fitted or top-dose-only effect; inactive means no such curve, though single readings can be large or run the other way. The list shows a part of the results.

Assay: Primary qHTS assay for Inhibitors of ovarian cancer metastasis using an organotypic tumor microenvironment (TME) model. Further: nearly all actives have a fitted effect of over 65% in size.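 On activity change, negative = inhibition: plate controls were DMSO wells for no effect and tomatine positive control wells for full effect.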
Conditions: SKOV3ip1-GFP adhesion/invasion on 3D omental model, fluorescence; series mostly up to 45.8 µM; activity change, negative = inhibition: at the top concentration
Procedure, shortened: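 Adhesion/invasion was scored as fixed GFP-labeled SKOV3ip1 cell counts (488/509 nm), normalized to DMSO and tomatine controls. Cancer cells in serum-free medium, with four compound doses (0.36-46 umol/L), sat 2 hr at RT then 16 hr at 37 C on a 48 hr fibroblast/mesothelial/ECM culture.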

outcome, inactive:
Cc1ccc(NC(=O)Cn2c(=O)n(CCc3ccccc3)c(=O)c3sc4ccccc4c32)cc1C, COc1ccc(C2CC(=O)c3cc(-c4nc(-c5cccc([N+](=O)[O-])c5)cs4)c(=O)n(-c4ccccc4C)c3C2)cc1 (stereo unspecified), CCc1ccc(C2CC(=O)N(c3cccc(C(F)(F)F)c3)C3=C2C(=O)OC3)cc1 (stereo unspecified), COc1cc(NC(=O)Cn2c(=O)n(CC3CCCO3)c(=O)c3cc(OC)c(OC)cc32)cc(OC)c1 (stereo unspecified), COc1cccc(NS(=O)(=O)c2ccc3[nH]cc(C(=O)NCCc4ccc(C)cc4)c(=O)c3c2)c1, O=C(COc1ccccc1F)Nc1ccc2nc(SCc3ccccc3)sc2c1, CCCCc1nn2c(C)c(-c3ccc(OCC)cc3)nc2s1, CCOC(=O)C1CCN(C(=O)Cn2nc(CC)n3c(cc4occc43)c2=O)CC1, COC(=O)c1cc2oc(C)cc2n1Cc1ccc(Cl)cc1, COc1cccc(NC(=O)CN2C(=O)C3(SCC(=O)N3c3cc(C)cc(C)c3)c3ccccc32)c1 (stereo unspecified), COc1ccc(CNC(=O)CCS(=O)(=O)c2ccc3c(c2)CC(C)N3C(=O)C2CC2)cc1 (stereo unspecified), CCN(CC)C(=O)C1CCN(C(=O)c2cnn(-c3ccccc3)c2-n2cccc2)CC1, CCc1ccc(CNC(=O)c2ccc(CS(=O)(=O)Cc3ccccc3C)o2)cc1, CCC1Oc2ccccc2N(CC(=O)NCc2ccc(C)cc2)C1=O (stereo unspecified), Cc1ccccc1OCC(=O)Nc1nnc(S(=O)(=O)N(C)c2ccccc2)s1, CCOc1ccc(C(=O)OCc2cc(=O)n3nc(C(C)C)sc3n2)cc1, Cc1cccc(CCNC(=O)c2nc(-c3ccc(Cl)cc3)n3c2CCCCC3)c1, Cc1ccc(-c2nc(CS(=O)CC(=O)O)c(C)o2)cc1 (stereo unspecified), Cc1ccc(S(=O)(=O)c2cn(CC(=O)Nc3ccccc3)c3cc4c(cc3c2=O)OCO4)cc1, CCOC(=O)c1cc(OC(=O)c2cc(Cl)ccc2OC)n(-c2ccccc2)n1, COc1ccccc1Nc1ncnc2c1nc1n2CCCCC1, O=C(COc1ccc(Cl)cc1Cl)Nc1ccc(C(=O)OC2CCCCC2)cc1, COc1ccc2c(c1)c(CC(=O)Nc1cc(C)c(OC)c(C)c1)c(C)n2C(=O)c1ccc(Cl)cc1, O=C(Nc1cc(-c2nc3ccccc3o2)ccc1Cl)c1cc([N+](=O)[O-])ccc1N1CCOCC1, Cc1cc(-c2ccc(C)c(S(=O)(=O)NCCc3ccccc3)c2)on1, CC(C)c1ccc(NC(=O)CSC2=Nc3ccccc3C3=NC(CC(=O)NCCc4ccccc4)C(=O)N23)cc1 (stereo unspecified), CCOc1ccccc1NC(=O)CSc1nc(-c2cccs2)cc(C(F)(F)F)n1, CCCc1noc(-c2ccc(NCc3ccccc3OC)c([N+](=O)[O-])c2)n1

Activity change, negative = inhibition, inactive:
COC(=O)c1ccc(NC(=O)c2nn(C)c3c2COc2ccccc2-3)cc1 2.29%, CCOc1ccc(OCC(=O)NCCS(=O)(=O)N2CCN(c3ccc(OC)cc3)CC2)cc1 3.22%, Cc1ccc(-c2cc(NC(=O)COc3c(C)cc(C)cc3C)on2)cc1 0.396%, O=C(NCc1ccccc1F)c1cccc(NC(=O)N2CCSc3ncccc32)c1 36.3%, CC[C@H](C)C(=O)O[C@H]1C[C@@H](C)C=C2C=C[C@H](C)[C@H](CC[C@@H]3C[C@@H](O)CC(=O)O3)[C@H]21 -8.07%, Cc1ccc(C)c(NC2=C(c3ccc(C(F)(F)F)cc3)C(=O)c3ccccc32)c1 4.78%, CCOCCc1nn2c(=O)cc(COC(=O)c3ccc(NC(=O)c4ccc(F)cc4)cc3)nc2s1 0.987%, COc1ccccc1C(=O)NCCc1csc(-c2ccc(C(F)(F)F)cc2)n1 4.28%, COc1ccc2c(CNC3CCC(C)CC3)c(C(=O)O)n(Cc3ccccc3)c2c1 (stereo unspecified) 14.9%, Clc1ccc(C(Cn2ccnc2)OCc2ccc(Sc3ccccc3)cc2)c(Cl)c1 (stereo unspecified) -6.88%, CCCN1CCCc2cc(CN(CCCN3CCOCC3)C(=O)Nc3ccc(OCC)cc3)ccc21 2.26%, CC(=O)N1CCc2cc(CNC(=O)Nc3ccccc3C(F)(F)F)ccc21 -7.44%, CCC(C(=O)Nc1cc(OC)ccc1OC)n1nc(-c2ccccc2)c2c(c1=O)CCCC2 (stereo unspecified) 6.56%, Cc1ccc2oc(C(=O)Nc3ccc(S(=O)(=O)Nc4ncccn4)cc3)cc(=O)c2c1 7.07%, Cc1ccc(-c2cn3nc(N4CCC(C(=O)Nc5ccccc5C)CC4)sc3n2)cc1 0.0008%, CCOc1ccccc1CNC(=O)C1CCN(Cc2cc3ccccc3n2Cc2ccccc2)CC1 8.72%, Cn1c2ccccc2c2c(C(=O)N3CCN(c4cccc(C(F)(F)F)c4)CC3)cn(C3CCCCC3)c(=O)c21 -5.58%, Cc1cccc(Cn2c(SCc3ccc(C(=O)NCc4ccccc4F)cc3)nc3cccnc32)c1 5.38%, Cc1ccc(-n2ccnc(NCc3cccs3)c2=O)cc1C 3.18%, Cc1cc(C)c2oc(C(=O)Nc3nc4ccc(Cl)cc4s3)cc(=O)c2c1 0.641%, CN1C(C(=O)NC(C)(C)C)=CC(c2ccc3c(c2)OCO3)=NS1(=O)=O 11.2%, CCCS(=O)(=O)c1nc(S(=O)(=O)c2ccc(C)cc2)c(NC(C)c2ccccc2)s1 (stereo unspecified) -8.31%, O=C(COCc1cc(-c2ccc3c(c2)OCO3)on1)N1CCN(c2cccc(C(F)(F)F)c2)CC1 -2.76%, COc1cc2nc(NC(=O)c3ccc(S(=O)(=O)N4CCCC4)cc3)sc2cc1OC 7.07%, COc1ccc2oc(=O)c(-c3nc4ccc(C)cc4[nH]3)cc2c1 6.41%, CCC(=O)N1CCc2cc(S(=O)(=O)NCCC(=O)Nc3cccc(SC)c3)ccc21 -10.3%, CCOC(=O)c1cc(-c2ccc(F)cc2)n(CCC(=O)NCc2ccc(C)cc2)c1C 2.56%, Cc1ccc(NC(=O)CN2CCN(C3CCCCC3)C(=O)C2=O)cc1C -4.12%, CCCN1C(C(=O)c2ccccc2)=C(OC(=O)C(C)(C)C)c2ccccc2S1(=O)=O -0.939%, Cc1ccc2c(c1)sc1nc(=O)n(-c3cccc(Cl)c3)c(=O)n12 0.841%, COc1ccccc1NC(=O)C1=C(C)Nc2nc(SCc3ccccc3Cl)nn2C1c1cccnc1 (stereo unspecified) 37.1%, CN(C(=O)NCc1noc2ccccc12)c1cccc(Cl)c1 6.4%, COc1ccc(CN2C(=O)c3ccccc3C2C(=O)NC2CCCCCC2)c(OC)c1 (stereo unspecified) 1.12%, O=C(Cn1ncc2c3ccccc3n(Cc3cccc(Cl)c3)c2c1=O)N1CCCCC1 -0.738%, Cc1ccc(-n2c(=O)[nH]c3sc4c(c3c2=O)CCNC4)cc1C -15.1%, Cc1cc(Cl)ccc1NS(=O)(=O)c1cc2[nH]c(=O)c(=O)[nH]c2cc1C -0.794%, Cc1ccc(NC(c2cccc(Cl)c2)c2nnc(-c3ccccc3)o2)cc1F (stereo unspecified) -25.2%, N#Cc1ccc(NC(=O)COCc2cc(-c3ccc(F)cc3)on2)cc1 9.23%, Cc1ccc(CN2C(=O)N(c3ccc(C)c(Cl)c3)S(=O)(=O)c3ccccc32)cc1 -0.925%, Cc1ccc(NC(=O)C2CCN(S(=O)(=O)c3c(C)noc3C)CC2)cc1C 9.62%, O=C(CSc1nccn1C1CCCC1)Nc1ccccc1 -8.71%, CCOC(=O)CSc1nc2ccccc2n2c(C)nnc12 7.24%, O=C(Nc1ccc(Cl)cc1C(F)(F)F)c1cc(S(=O)(=O)NCc2ccccc2)ccc1F 3.55%, CCOC(=O)C1CCN(C(=O)c2nn(-c3ccc(C)cc3)c(=O)n(C)c2=O)CC1 4.55%, COC(=O)c1c(-c2cccs2)csc1NC(=O)COc1ccc(C(C)C)cc1 3.07%, CCOc1ccc(CNC(=O)c2cnc(SC)nc2C)cc1 0.921%, COc1ccccc1N1CCN(C(=O)c2cc3c(=O)n(Cc4cccnc4)ccc3nc2C)CC1 1.06%, CCOc1ccc(-n2ccnc2SCC(=O)Nc2ccc(OC)cc2OC)cc1 -7.67%, Cc1ccc(Cl)cc1N1CCN(C(=O)c2cn(C)c3ccc(S(=O)(=O)N4CCCC4)cc3c2=O)CC1 1.13%, CC(C)CC(=O)N(Cc1ccccc1)S(=O)(=O)c1ccc2c(c1)oc(=O)n2C 0.843%, CC(=O)c1ccc(NC(=O)COc2ccccc2-c2nc(C)no2)cc1 -8.29%, COc1ccc(Br)cc1CNC(=O)c1cc2c(=O)n(C)c3ccccc3c2s1 4.87%, CCN1CCN(c2ncc3c(n2)CCN(Cc2ccc(C)s2)C3)CC1 -1.17%, CC(=O)c1cc(-c2ccccc2)n(CC(=O)Nc2ccc(C)cc2C)c1C 6.06%, Nc1nonc1-c1nc2ccccc2n1CC(=O)Nc1ccc(F)cc1 -3.34%, Cc1cccc(N2CCN(C(=O)c3ccc4c(c3)CCN4S(=O)(=O)c3ccccc3)CC2)c1C -5.96%, CCOc1ccccc1NC(=O)NC(CC)c1c(-n2cccc2)sc2c1CCN(C)C2 (stereo unspecified) -0.256%, CCc1ccc(S(=O)(=O)c2nnn3c2nc(NCCC(C)C)c2cc(Cl)ccc23)cc1 23.8%, CCc1ccccc1NC(=O)CSc1nccn1C -1.89%, Cn1c(SCC(=O)Nc2ccccc2F)nc2c([nH]c3ccccc32)c1=O -7.28%, CCOc1ccc(NS(=O)(=O)c2ccc3[nH]cc(C(=O)NCCc4ccccc4)c(=O)c3c2)cc1 7.43%, Cn1nc(C(=O)Nc2cccc(C(F)(F)F)c2)c2c1-c1ccccc1S(=O)(=O)C2 3.42%, CCCN(CCC)S(=O)(=O)c1ccc(C(=O)N2CCn3c4c(c5cc(C)ccc53)CCCC42)cc1 (stereo unspecified) 4.96%, CC(=O)c1ccc(OC(=O)c2c(-c3ccccc3Cl)noc2C)cc1 -3.36%, COc1cccc(CNC(=O)C2CCN(c3ncnc4c3nc3n4CCCCC3)CC2)c1 4.8%, Cc1[nH]c2ccccc2c1SCCNC(=O)c1ccc(F)cc1 4.9%, COc1ccc(Cl)cc1NC(=O)c1c(NCc2cccs2)sc2c1CCC(C)C2 (stereo unspecified) -18.5%, Cn1c(=O)nc2n(-c3ccc(Br)cc3)c3cccc(Cl)c3cc-2c1=O 9.09%
